Measurements reported in the RNAGym collection of RNA variant scans (doi:10.7554/elife.90254).
Read counts are not given, so values of variants with three or more changes are uncertain.

B1: LINE1-mini (parent)
chain: GGCAGAGCUCAACACAGCGUGGCAAAGUGGCUGUGGCUAGACUGCC

Variants of: B1
Assay: self-cleavage, relative activity (ratio to wild type); higher = more cleavage; in vitro, sequencing; the parent is a self-cleaving ribozyme
With A4U C10G A14C the self-cleavage was 0.02. For A4U C18A G22C G36C, the self-cleavage was 0.08. Work on A4U G5C A11G C15G U20A U38A yielded a self-cleavage of 0.01. For A4U U9A C42G C45U, the self-cleavage was 0.17. Variant A4U C10G A16C A39C U43A has a self-cleavage of 0.01. Variant G5A A12C A14G C15G C31A U38A has a self-cleavage of 0.1. With A4U G36U G44U the self-cleavage was 0.17. A4U G5A G17A G19U G35A U43C C45G gave a self-cleavage of 0.01. Work on A4U C10U G40C C45U yielded a self-cleavage of 0.07. With A4U G5C C23A C46A the self-cleavage was 0.08. With A4U C13A G35U G40A G44C the self-cleavage was 0.05. In the case of G5A A6U G22A, the self-cleavage is reported as 0.11. With A4U G17A G35C U38G the self-cleavage was 0.05. With A4U G7U U28A U32A the self-cleavage was 0.09. With A4U C10U G40C the self-cleavage was 0.04. Work on A4U U32A C42A U43C yielded a self-cleavage of 0.05. With G5A A6C A11G G35U the self-cleavage was 0.04. In the case of G5A A6G A25G G36A, the self-cleavage is reported as 0.07. A4U U34C U38A A41U showed a self-cleavage of 0.08. A4U U9A A12U A14C C15G U38A gave a self-cleavage of 0.23. Work on A4U G35A C45A yielded a self-cleavage of 0.06. A4U G5A G7C A14C C15A A26U G40U gave a self-cleavage of 0.04. With G5A A6C C8U the self-cleavage was 0.06. In the case of G5A A6U A12U G40A, the self-cleavage is reported as 0.11. A4U U9C A41C showed a self-cleavage of 0.04. In the case of A4U C10G G22A A24U, the self-cleavage is reported as 0.03. In the case of A4U G17A A26C G30C G40U, the self-cleavage is reported as 0.02. Work on G5A A11C U34A yielded a self-cleavage of 0. Variant A4U U34C C45U has a self-cleavage of 0.11. For A4U C31A C45G, the self-cleavage was 0.03. Variant A4U G40U C45G has a self-cleavage of 0.8. Work on A4U G5C C13U C18U G35C yielded a self-cleavage of 0.12. A4U C23U G36U U38G gave a self-cleavage of 0.02. A4U U9G C15A A16G showed a self-cleavage of 0.2. For A4U C18A U38C, the self-cleavage was 0.09. G5A A12G A14U G35U U38G showed a self-cleavage of 0.01. Work on G5A A12C C18G G29U G35C yielded a self-cleavage of 0.03. Work on A4U C18G G27U yielded a self-cleavage of 0.52. In the case of A4U C15G G33U C45A, the self-cleavage is reported as 0.02. In the case of A4U C18U U28G G36C U38A, the self-cleavage is reported as 0.14. In the case of A4U G22U U28C, the self-cleavage is reported as 0.2. With A4U C37G C42U the self-cleavage was 0.01. Work on A4U C10A C31G yielded a self-cleavage of 0.02. Work on A4U G22A U38G A39C A41C yielded a self-cleavage of 0.04. A4U G21U G29A showed a self-cleavage of 0.04. A4U G27C G29U gave a self-cleavage of 0.02. A4U G7U A16U C31U showed a self-cleavage of 0.12. A4U G17A G27C C37U showed a self-cleavage of 0.05. In the case of G5A A11U A12G G19U A25C A26C G36U G40U A41G, the self-cleavage is reported as 0.01. In the case of A4U G7A G36A, the self-cleavage is reported as 0.32. A4U C13U C18G G29C C31U gave a self-cleavage of 0.04. G5A A6G G19A G44U showed a self-cleavage of 0.05. In the case of A4U U9G A39G, the self-cleavage is reported as 0.1. For A4U U32C G36U, the self-cleavage was 0.21. With A4U C13A A24G A41G C46G the self-cleavage was 0.2. Variant A4U C23A G29A has a self-cleavage of 0.61. Work on A4U C15U G35U yielded a self-cleavage of 0.72. Work on A4U C15U C42U C45G yielded a self-cleavage of 0.09. Variant A4U C13U A26U has a self-cleavage of 0.03. Work on A4U G5U U9G U38G yielded a self-cleavage of 0.01. With A4U G7A G22U U38A the self-cleavage was 0.04. Variant A4U C10A C42G C46A has a self-cleavage of 0. A4U G17A C23A U34C showed a self-cleavage of 0.02. G5A A6G C37U showed a self-cleavage of 0.14. Work on A4U C31U G33U A41G yielded a self-cleavage of 0.09. Work on A4U C18A G35C yielded a self-cleavage of 0.05. A4U G22C U38A G40A gave a self-cleavage of 0.09. For A4U C23U G36C C46U, the self-cleavage was 0.02. With A4U G5U A16G the self-cleavage was 0.03. In the case of G5A A6G G22C G27A U38A G40A, the self-cleavage is reported as 0.02. For A4U C18A U28G U34A C42G, the self-cleavage was 0.01. A4U C18A G21U G35U gave a self-cleavage of 0.07. For A4U U9C G19U C37A, the self-cleavage was 0.02. Work on A4U U9C A24C G29U U32A A41C yielded a self-cleavage of 0.01. For A4U G7A C31A, the self-cleavage was 0.16. With G5A A6G G17C A25G A39C the self-cleavage was 0.06. Work on A4U U9G U28C U32C G35C yielded a self-cleavage of 0.03. For A4U G5C C10U A11U G29C, the self-cleavage was 0.02. A4U C23G A24U G33U G36A gave a self-cleavage of 0.05. For A4U G29U U34G, the self-cleavage was 0.05. In the case of A4U G5C U9C, the self-cleavage is reported as 0.05. A4U C13A U34G showed a self-cleavage of 0.02. For G5A A6C G36C A39U, the self-cleavage was 0.04. Variant A4U G5A G36C has a self-cleavage of 0.2. G5A A6C C15A A26U G30A C45U gave a self-cleavage of 0.02. Variant A4U G19A A25C C37G A41U has a self-cleavage of 0.03. A4U G22U U28A U38C gave a self-cleavage of 0.25. With A4U G22U G30U G33U the self-cleavage was 0.14. In the case of A4U U9G A16C C18A A26G U34A U38A, the self-cleavage is reported as 0.13. A4U C15G A24C U34C showed a self-cleavage of 0.03. A4U G5U C18G G44C gave a self-cleavage of 0.04. Work on A4U C37U A39U yielded a self-cleavage of 0.04. With G5A A6G U32C G40C the self-cleavage was 0.02. For A4U G7A C15U G27A G29U, the self-cleavage was 1.4. Work on G5A A12C G29C G36A yielded a self-cleavage of 0.04. With A4U C13G C31G the self-cleavage was 0.08. Variant A4U C13G G17A A25G has a self-cleavage of 0.04. Variant A4U G27C G36U has a self-cleavage of 0.05. Work on A4U U9C A11G U20C G33A C46G yielded a self-cleavage of 0.01. In the case of A4U G21U G40C, the self-cleavage is reported as 0.2. A4U C15A G44U showed a self-cleavage of 0.07. Work on G5A A12U C23A U43C yielded a self-cleavage of 0.01. A4U U28A G29U G35U G40U C45A gave a self-cleavage of 0.02. With A4U C23A C37U the self-cleavage was 0.04. Variant G5A A12U C31U A41C has a self-cleavage of 0. A4U C15A C18U G22U A24C G33A A39U gave a self-cleavage of 0. In the case of A4U C10U G30U A39U C46U, the self-cleavage is reported as 0.04. Variant G5A A12G G21A G30C has a self-cleavage of 0.01. For A4U C13U C18U C46A, the self-cleavage was 0.05. G5A A6U C15A G36A showed a self-cleavage of 0.07. Variant G5A A6G G35U G44U has a self-cleavage of 0.05. For A4U U9A A14C A24C G29U U32G, the self-cleavage was 0.05. G5A A12U C23U G30C C31G U34A gave a self-cleavage of 0.01. A4U U20A C31U C46U gave a self-cleavage of 0.01. Variant G5A A6G C10A G44C C45A has a self-cleavage of 0.02. In the case of G5A A11C C31A G36C A41U C46G, the self-cleavage is reported as 0.01. For A4U U9C A24U A26C, the self-cleavage was 0.03. Work on A4U G5A A26C G36U yielded a self-cleavage of 0.23. A4U G7C G27U gave a self-cleavage of 0.33. With A4U C37G A39U G40C C45U the self-cleavage was 0.04. Work on A4U G19C A26U yielded a self-cleavage of 0.07. With A4U G7C A12U U20C C31G the self-cleavage was 0.01. For G5A A11U C15A U34A, the self-cleavage was 0.02. Work on G5A A11U G22A U38G G44C yielded a self-cleavage of 0.01. G5A A6G C10U U34C showed a self-cleavage of 0.02. Work on A4U G22U A25U C31A G40U yielded a self-cleavage of 0.11. In the case of A4U C18A C31U, the self-cleavage is reported as 0. For G5A A6G U28G, the self-cleavage was 0.02. In the case of A4U G5A U20A C37U C45A, the self-cleavage is reported as 0.02. Variant A4U C23G A26C has a self-cleavage of 0.07. With A4U G5C G7U the self-cleavage was 0.22. Variant A4U G19U G21U G27U has a self-cleavage of 0.07. For A4U G7A G30U G33U, the self-cleavage was 0.45. A4U C13A G21A G35U C37U showed a self-cleavage of 0.24. For A4U G5A G21U C46G, the self-cleavage was 0.15. For A4U G7A C23A, the self-cleavage was 0.14. Work on A4U G5C A6C yielded a self-cleavage of 0.1. Work on A4U G17C C42A yielded a self-cleavage of 0.01. Variant A4U G30U G44U has a self-cleavage of 0.1. Variant G5A A6G C10A C42U has a self-cleavage of 0.03. For A4U C10G U38C A39G G44A C46A, the self-cleavage was 0.01. For A4U C15G C23U A24U, the self-cleavage was 0.03. For A4U U9C G27U U43A C46U, the self-cleavage was 0.01. With A4U C23A A41U the self-cleavage was 0.24. In the case of A4U C15U U28A U43A, the self-cleavage is reported as 0.29. Work on A4U C18A C42U yielded a self-cleavage of 0.04. A4U G5U A16C G44C gave a self-cleavage of 0.04. Variant A4U C10U U28C has a self-cleavage of 0.04. With A4U U32C C42A the self-cleavage was 0.06. Work on A4U C18U G30C C42A yielded a self-cleavage of 0.32. With G5A A12G C31A the self-cleavage was 0.11. For A4U C15A C18U C46U, the self-cleavage was 0.01. Variant A4U G29U U32G has a self-cleavage of 0.07. A4U G5C C10U C18U G19U G21A C37U A41G showed a self-cleavage of 0.01. Work on A4U C10G A24U C31G C46G yielded a self-cleavage of 0.01. A4U C37G A39C showed a self-cleavage of 0.03. For A4U C15U C18A A24C G27U G33U, the self-cleavage was 0.05. Variant A4U G7A G44A has a self-cleavage of 0.28. For A4U C23A G29U C31G, the self-cleavage was 0.04. A4U G7U A16U A24G G29U gave a self-cleavage of 0.02. G5A A12G C37U A39C showed a self-cleavage of 0.04. In the case of A4U G19C U20G G35U, the self-cleavage is reported as 0.06. With A4U G7A U9G C10A U34A the self-cleavage was 0.03. Variant G5A A6G U20C G21C has a self-cleavage of 0.01. Work on A4U G33C C37A yielded a self-cleavage of 0.06. Variant A4U G5C C13G U20C C23U has a self-cleavage of 0.02. Variant A4U G5U G30A G36C has a self-cleavage of 0.56.
